Source: the GPR68 mutational scans of Howard et al. (2025)

B1: GPR68, Q15743 (parent)
chain: MGNITADNSSMSCTIDHTIHQTLAPVVYVTVLVVGFPANCLSLYFGYLQIKARNELGVYLCNLTVADLFYICSLPFWLQYVLQHDNWSHGDLSCQVCGILLYENIYISVGFLCCISVDRYLAVAHPFRFHQFRTLKAAVGVSVVIWAKELLTSIYFLMHEEVIEDENQHRVCFEHYPIQAWQRAINYYRFLVGFLFPICLLLASYQGILRAVRRSHGTQKSRKDQIQRLVLSTVVIFLACFLPYHVLLLVRSVWEASCDFAKGVFNAYHFSLLLTSFNCVADPVLYCFVSETTHRDLARLRGACLAFLTCSRTGRAREAYPLGAPEASGKSGAQGEEPELLTKLHPAFQTPNSPGSGGFPTGRLA

Assays:
[1] = variants of: B1; assay: cAMP reporter score (Enrich2 score, wild type = 0); higher = more signal; HEK293T, FACS bins
[2] = variants of: B1; assay: surface expression score (Enrich2 score, wild type = 0); higher = more signal; HEK293T, FACS bins

Row | Variant | cAMP reporter score ([1]; pH 5.5) | cAMP reporter score ([1]; pH 6) | cAMP reporter score ([1]; pH 6, modulator: ogerin) | cAMP reporter score ([1]; pH 6.5, modulator: ogerin) | surface expression score [2]
1 | V26Y | 0.06 | -0.899 | -0.782 | -0.765 | 0.059
2 | V26T | 0.737 | 0.643 | 0.597 | -0.019 | 
3 | V26Q | -1.44 | -1.49 | -1.58 | -1.97 | -2.35
4 | V26N | -1.41 | -0.288 | -1.86 | -0.516 | -2.27
5 | V26I | 0.91 | 0.257 | 0.768 | 0.547 | 1.49
6 | V26A | -0.475 | -0.116 | 0.105 | -0.051 | -0.098
7 | V26M | -0.368 | -0.092 | -0.183 | -0.153 | -0.277
8 | V26L | 1.3 | 1.91 | 1.53 | 1.98 | 2.23
9 | V26E | -0.413 | 0.176 | -1.02 | -0.428 | 
10 | L23_A24insGSG | -1.3 | 0.452 | -1.02 | -0.584 | -1.86
11 | V26_V27del | -1.45 | -1.72 | -1.83 | -1.12 | -2.22
12 | P25G | -0.598 | -0.587 | -0.997 | -1.06 | 1.37
13 | P25K | -0.636 | -0.859 | -0.674 | -0.48 | 1.76
14 | P25Q | -0.263 | 0.137 | -0.896 | -1.22 | 1.37
15 | P25E | -0.687 | -0.699 | -1.11 | -0.57 | -0.555
16 | P25F | -0.724 | -0.2 | -1.06 | -0.81 | 1.64
17 | P25M | -0.043 | -0.214 | -0.423 | -0.439 | 2.33
18 | P25D | -1.82 | -0.638 | -1.84 | -0.76 | -1.83
19 | P25N | -1.02 | -0.22 | -1.17 | -0.819 | 0.906
20 | P25Y | -1.01 | -0.525 | -0.908 | -0.462 | 1.26
21 | P25W | -0.171 | 0.194 | -0.657 | -0.828 | 1.58
22 | P25H | -1.34 | -0.84 | -1.27 | -1.28 | -0.336
23 | P25L | -1.21 | -0.734 | -1.46 | -1.32 | 0.629
24 | P25V | -0.054 | -0.27 | -0.736 | -0.296 | 1.94
25 | P25S | 0.276 | -0.675 | -0.165 | -0.692 | 1.63
26 | P25C | -1.44 | -0.699 | -1.32 | -0.692 | 0.558
27 | P25I | 0.254 | -0.379 | -0.276 | -0.463 | 1.99
28 | P25R | -1.06 | -0.606 | -1.34 | -1.02 | 1.23
29 | P25A | 1.24 | -0.23 | 0.865 | 0.807 | 4.05
30 | P25T | -0.023 | -0.503 | -0.449 | -0.955 | 1.66

The least precise scores are not listed. The source holds two more conditions with little spread; they are left out. Read del as a deletion of the residues named and ins as an insertion between two positions. For some of these results: How much ogerin was present is not stated here.
